The other results are listed elsewhere or left out.
Biological target: T1, OsWOX13 (Oryza sativa, UniProt Q5QMM3 1-267)
T1 sequence: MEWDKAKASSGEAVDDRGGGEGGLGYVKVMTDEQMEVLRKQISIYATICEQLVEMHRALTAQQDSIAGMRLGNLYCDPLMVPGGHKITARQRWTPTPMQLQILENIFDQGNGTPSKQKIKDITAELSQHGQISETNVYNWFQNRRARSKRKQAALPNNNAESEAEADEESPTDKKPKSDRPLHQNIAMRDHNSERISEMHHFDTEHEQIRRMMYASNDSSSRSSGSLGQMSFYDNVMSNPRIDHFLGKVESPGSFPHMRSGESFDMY
Assay: protein-binding microarray (RPBM); PBS, 2% BSA, 51.3 ng/ul salmon testes DNA, 50 uM zinc acetate, 200 nM TF, 25 C, 1 h; high values mean tight binding
Details: protein: recombinant; tags: N-terminal polyhistidine and DsRed monomer fusion (pET32a); label: CyDye5-dUTP incorporated in the synthesized complementary strand; 3' TTTTT single-stranded linker to array surface; dsDNA, one strand shown
Summary of the method: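 A custom Agilent array was converted to double-stranded form by primer extension with Cy5-dUTP and blocked with 2% BSA. Protein at 200 nM in PBS with 2% BSA, salmon testes DNA and 50 µM zinc acetate was applied for 1 h at 25 °C, followed by washing. The proteins were polyhistidine–DsRed N-terminal fusions of transcription factors, expressed in E. coli BL21-CodonPlus and Ni–NTA-purified. The binding signal is per-feature fluorescence intensity (arbitrary units) from an Axon 4000B scanner.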

Going from “AATCCAATTGAATAAATTATCTATGTTTAAAAGAGTAATGCGGAGTCACCTAGTGCAG” to “AGGAAACGGTGATTTGTTTGACATGGAATTAACCTATCAGCGGAGTCACCTAGTGCAG”, the binding signal rises from 20100 fluorescence intensity (a.u.) to 22100 fluorescence intensity (a.u.).

Compared with “GTTTAGCACTTAATCATATAATTATTACGATGGATCATTTCGGAGTCACCTAGTGCAG”, “ACTGATTTTAGTAAATCTGGAAGGAAGCGTGGTGGCAAAGCGGAGTCACCTAGTGCAG” is higher in binding signal: 7060 fluorescence intensity (a.u.) for the first, 13700 fluorescence intensity (a.u.) for the second.

Going from “CACAGATAGGCCGGTGATCAGATTTCAGATATTCCCCATTCGGAGTCACCTAGTGCAG” to “ATGTCAGCAATGAAGGATTTGATTGCCAAGTAAGGCGGGTCGGAGTCACCTAGTGCAG”, the binding signal rises from 4440 fluorescence intensity (a.u.) to 6410 fluorescence intensity (a.u.).

Going from “ACTATTAAAACTAATAGATTTTATCCCTTTGAACGGTACGCGGAGTCACCTAGTGCAG” to “TATCTAATTAATTCATTCGTTTACGTTATTGAATAATCCCCGGAGTCACCTAGTGCAG”, the binding signal rises from 3160 fluorescence intensity (a.u.) to 33000 fluorescence intensity (a.u.).

Compared with “CGTCGGGGTTGGGGTTGGGGCTGGGGCCGGCGCCGACGCCCGGAGTCACCTAGTGCAG”, “CGCTAACAGAACCTTCCGGTATGACCTAACAATGTTGTACCGGAGTCACCTAGTGCAG” is higher in binding signal: 4150 fluorescence intensity (a.u.) for the first, 9440 fluorescence intensity (a.u.) for the second.

First: AAAATATGACTAACTATGACAGGTATGAACGGTGAGCTGCCGGAGTCACCTAGTGCAG
Second: TTAATGAACTGCTGACTGGACTGCTACGCGTACACCACGTCGGAGTCACCTAGTGCAG
The binding signal of the first is lower: 3800 fluorescence intensity (a.u.) for the first, 8510 fluorescence intensity (a.u.) for the second.

First: AAAACGTATGATTTAGTAGATTGGAAAGCATACAGATGAACGGAGTCACCTAGTGCAG
Second: TAATACTTAATTAATCACGCACTAATATACCGCTCCATTTCGGAGTCACCTAGTGCAG
The binding signal of the first is lower: 6530 fluorescence intensity (a.u.) for the first, 22700 fluorescence intensity (a.u.) for the second.

Going from “ATAGTTACACTGTAATTACACTATAGTTACACTACTATAGCGGAGTCACCTAGTGCAG” to “TTCCTCAAACTGATTGGAATTCTGATTATGTGTTGCATATCGGAGTCACCTAGTGCAG”, the binding signal rises from 3340 fluorescence intensity (a.u.) to 33900 fluorescence intensity (a.u.).

First: TCTAATTACTTATTAATTAATTGATTTAATTAAATTAATCCGGAGTCACCTAGTGCAG
Second: AGTAGTAAATTAAACTTCACATGTTTAACGTTGTGGAACACGGAGTCACCTAGTGCAG
The binding signal of the first is higher: 40400 fluorescence intensity (a.u.) for the first, 10200 fluorescence intensity (a.u.) for the second.

Going from “TATTTGATAGCTTTATCCAAATAATCTTGTGTGCGAAAGCCGGAGTCACCTAGTGCAG” to “GAGATAATGATTTACATTGTTTGTATATTGAGTTCTAAAACGGAGTCACCTAGTGCAG”, the binding signal rises from 4720 fluorescence intensity (a.u.) to 11600 fluorescence intensity (a.u.).

First: TCTGATGGATCAGCATGCACGTAGTGTACACGTCACTCCACGGAGTCACCTAGTGCAG
Second: TATTACTGAAAGAATAATTAGCAGTAAATACGAGCACACGCGGAGTCACCTAGTGCAG
The binding signal of the first is lower: 5750 fluorescence intensity (a.u.) for the first, 8140 fluorescence intensity (a.u.) for the second.

First: TTTTGAGATTGAGAAAACACATATAGAAATTATACAGGATCGGAGTCACCTAGTGCAG
Second: TACACCAAATTGACTAGGCATATATTTGTACCACTCATTCCGGAGTCACCTAGTGCAG
The binding signal of the first is lower: 7250 fluorescence intensity (a.u.) for the first, 12500 fluorescence intensity (a.u.) for the second.

First: TTAGATTATGGATGCACATCTTTACAGTTTGGAAATCCCTCGGAGTCACCTAGTGCAG
Second: CACAAACTTATGAAATCTATGATTAGTCAGCTAGCCGTTGCGGAGTCACCTAGTGCAG
The binding signal of the first is lower: 7090 fluorescence intensity (a.u.) for the first, 8880 fluorescence intensity (a.u.) for the second.

Going from “CTGCTAATTAGCTCCCTCTCTTCTTCATCCAAGCTAGCTACGGAGTCACCTAGTGCAG” to “TTGTTTAAATTATTGTGTCTAACCTACGAGCCCAACCCAACGGAGTCACCTAGTGCAG”, the binding signal falls from 30500 fluorescence intensity (a.u.) to 6180 fluorescence intensity (a.u.).

Compared with “TTCTTAATAATATACTACTAATTTCGATCGTCCCTTAATTCGGAGTCACCTAGTGCAG”, “AGACAATTCAATAATTAATCTACACTTTCCTTCCGCACCTCGGAGTCACCTAGTGCAG” is higher in binding signal: 5100 fluorescence intensity (a.u.) for the first, 5880 fluorescence intensity (a.u.) for the second.

Going from “TTATATAAATTATATATCGCACCATTAATACTTTGGTCTACGGAGTCACCTAGTGCAG” to “TGCCAAAATTAATTTAAATTTGAAAAGGGTGAAGTTTTGTCGGAGTCACCTAGTGCAG”, the binding signal rises from 7960 fluorescence intensity (a.u.) to 15600 fluorescence intensity (a.u.).

Compared with “ACATTTAAAATATCAAATTAATTTCATTAAATCTAACATTCGGAGTCACCTAGTGCAG”, “CAATATTTAAATGATGGATTAAAAGAATTCATATATTTCGCGGAGTCACCTAGTGCAG” is higher in binding signal: 5900 fluorescence intensity (a.u.) for the first, 7400 fluorescence intensity (a.u.) for the second.

First: AATCTGGTTTCAAAATTTATCAATTTAGCTTACCTGTTGACGGAGTCACCTAGTGCAG
Second: TCCAAATTGTAGTTAATTTTAAATTGTATTCCTACTTGAACGGAGTCACCTAGTGCAG
The binding signal of the first is lower: 5960 fluorescence intensity (a.u.) for the first, 34700 fluorescence intensity (a.u.) for the second.

Compared with “AGTTAATGAGGACGATGCACAAAATTTCATACTCGTGTCTCGGAGTCACCTAGTGCAG”, “AGCCAAAGTGATAAATTAATGCAGTAGAGAGAGATTGGTGCGGAGTCACCTAGTGCAG” is higher in binding signal: 3720 fluorescence intensity (a.u.) for the first, 3950 fluorescence intensity (a.u.) for the second.

Compared with “AAATATACATCAAATCTAATTTGTATCCCTCAATTGCAATCGGAGTCACCTAGTGCAG”, “CACTTCTGTACTTGGCGTGATTGGGCCGCGGACCGGTAGACGGAGTCACCTAGTGCAG” is lower in binding signal: 6290 fluorescence intensity (a.u.) for the first, 3750 fluorescence intensity (a.u.) for the second.

Going from “CAAATTTGATCAACCACACTAGTATAAATGCATCACAACTCGGAGTCACCTAGTGCAG” to “ATACCGTTTTATTTTGTAATTTACTCTCATCTTTATATAGCGGAGTCACCTAGTGCAG”, the binding signal rises from 3370 fluorescence intensity (a.u.) to 3970 fluorescence intensity (a.u.).

Source: article PMC7819943, “Rice protein-binding microarrays: a tool to detect cis-acting elements near promoter regions in rice”
